Data: article PMC6683731 (The Journal of Cell Biology, 2019)

Assays:
GST-Sgo1 fragment 47–353 = GST-Sgo1 fragment 47–353 (human, UniProt Q5FBB7 47-353); test: pull-down
GST-Sgo1 fragment 13–353 = GST-Sgo1 fragment 13–353 (human, UniProt Q5FBB7 13-353); test: pull-down
GST-Sgo1 fragment 13–353, sequence (Q5FBB7 13-353): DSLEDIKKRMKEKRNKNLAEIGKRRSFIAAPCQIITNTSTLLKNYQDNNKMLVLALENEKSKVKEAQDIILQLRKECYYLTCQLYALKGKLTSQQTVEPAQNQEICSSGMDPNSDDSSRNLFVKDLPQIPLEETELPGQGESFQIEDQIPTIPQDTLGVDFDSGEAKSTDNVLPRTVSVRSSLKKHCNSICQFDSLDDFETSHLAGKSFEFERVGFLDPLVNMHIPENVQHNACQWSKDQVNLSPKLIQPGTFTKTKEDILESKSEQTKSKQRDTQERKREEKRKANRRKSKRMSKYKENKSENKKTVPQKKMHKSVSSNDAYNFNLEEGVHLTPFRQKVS

GST-Sgo1 fragment 47–353, sequence (Q5FBB7 47-353): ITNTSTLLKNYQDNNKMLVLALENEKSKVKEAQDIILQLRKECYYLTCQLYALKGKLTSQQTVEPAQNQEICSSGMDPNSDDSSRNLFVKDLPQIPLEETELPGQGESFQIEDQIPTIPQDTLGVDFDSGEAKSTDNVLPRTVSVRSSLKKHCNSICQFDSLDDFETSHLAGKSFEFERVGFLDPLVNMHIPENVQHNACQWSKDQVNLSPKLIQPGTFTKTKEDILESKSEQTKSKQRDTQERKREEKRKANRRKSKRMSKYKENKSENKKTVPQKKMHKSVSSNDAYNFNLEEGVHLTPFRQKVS

B1: His6-SET (full length) (natural protein)
chain: not shown
- binding result (GST-Sgo1 fragment 47–353): binds
- binding result (GST-Sgo1 fragment 13–353): binds
